In all, about 33,000 sequences were measured (“E-score (-0.5 to 0.5)”: median about -0.053, highest 2% from about 0.37 on). Some of the results follow.
target: Hap1 (UniProt P0CE41); experiment: PBM E-score (8-mer binding enrichment) (E-score (-0.5 to 0.5)); higher = stronger / more preferred TF binding; most listed sequences are background and not binding sites; settings: protein concentration: 200 nM; construct: GST-DNA-binding domain
Method: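 Universal 'all 10-mer' protein binding microarrays (Agilent AMADID 015681) probed with GST-tagged S. cerevisiae TFs (full-length or DBD) made by in vitro transcription/translation (PURExpress), about 100-200 nM. Bound TF was detected with fluorescent anti-GST. Each ungapped 8-mer (which stands for itself and its reverse complement) is scored by the PBM enrichment score (E-score), a modified Wilcoxon-Mann-Whitney statistic from -0.5 to +0.5, computed with the Universal PBM Analysis Suite. Scale: above 0.35 generally sequence-specific binding.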

Sequence of UniProt P0CE41 (P0CE41 whole entry, the tested form may be a part): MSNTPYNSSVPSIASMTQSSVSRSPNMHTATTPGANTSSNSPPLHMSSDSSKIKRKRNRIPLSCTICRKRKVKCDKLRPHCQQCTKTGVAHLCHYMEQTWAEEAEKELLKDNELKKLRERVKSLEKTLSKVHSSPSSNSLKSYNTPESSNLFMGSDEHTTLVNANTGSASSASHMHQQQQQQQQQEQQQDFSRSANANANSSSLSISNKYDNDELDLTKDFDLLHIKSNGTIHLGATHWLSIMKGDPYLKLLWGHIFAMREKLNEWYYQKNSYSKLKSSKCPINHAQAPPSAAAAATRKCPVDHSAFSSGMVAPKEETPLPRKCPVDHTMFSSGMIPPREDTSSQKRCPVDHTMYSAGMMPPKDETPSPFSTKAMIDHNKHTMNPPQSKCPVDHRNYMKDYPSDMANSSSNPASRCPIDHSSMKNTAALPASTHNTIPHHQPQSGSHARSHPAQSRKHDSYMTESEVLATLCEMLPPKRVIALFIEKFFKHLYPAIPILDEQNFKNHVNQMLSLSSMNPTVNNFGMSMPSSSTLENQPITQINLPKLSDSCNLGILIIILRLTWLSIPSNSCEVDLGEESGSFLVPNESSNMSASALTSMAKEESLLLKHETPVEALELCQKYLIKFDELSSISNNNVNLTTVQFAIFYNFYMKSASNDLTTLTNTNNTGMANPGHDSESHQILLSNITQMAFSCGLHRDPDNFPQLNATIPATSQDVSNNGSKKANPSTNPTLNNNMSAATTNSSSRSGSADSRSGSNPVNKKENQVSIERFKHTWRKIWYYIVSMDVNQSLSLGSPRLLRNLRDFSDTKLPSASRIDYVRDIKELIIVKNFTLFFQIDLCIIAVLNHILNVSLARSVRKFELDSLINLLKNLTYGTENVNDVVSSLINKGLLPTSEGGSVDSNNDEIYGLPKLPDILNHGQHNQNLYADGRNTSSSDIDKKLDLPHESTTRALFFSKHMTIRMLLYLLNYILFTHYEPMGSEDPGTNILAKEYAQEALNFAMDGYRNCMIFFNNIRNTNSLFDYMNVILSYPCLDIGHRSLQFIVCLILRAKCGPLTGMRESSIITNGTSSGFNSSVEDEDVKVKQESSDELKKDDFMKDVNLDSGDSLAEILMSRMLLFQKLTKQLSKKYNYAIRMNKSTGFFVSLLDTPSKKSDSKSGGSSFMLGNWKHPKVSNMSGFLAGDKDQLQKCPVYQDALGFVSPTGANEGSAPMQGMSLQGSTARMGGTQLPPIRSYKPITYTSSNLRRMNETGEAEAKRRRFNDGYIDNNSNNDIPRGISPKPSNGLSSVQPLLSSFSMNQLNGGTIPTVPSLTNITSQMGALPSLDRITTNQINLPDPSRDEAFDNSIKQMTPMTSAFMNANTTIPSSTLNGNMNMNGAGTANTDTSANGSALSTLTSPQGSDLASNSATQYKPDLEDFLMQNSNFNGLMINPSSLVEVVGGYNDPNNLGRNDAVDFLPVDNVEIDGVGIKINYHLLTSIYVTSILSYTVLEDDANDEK

| Sequence | PBM E-score |
| --- | --- |
| GCCATGTA | -0.109 |
| ACGATCCA | -0.111 |
| AGACAAAG | -0.202 |
| CAGTAATC | -0.223 |
| AACTTTAT | 0.00581 |
| ATTTTACG | 0.196 |
| CGAATGAG | 0.166 |
| ACTGACAT | -0.245 |
| CCTCTAAC | 0.021 |
| GGCTAAAA | 0.0064 |
| AGACGAGA | -0.117 |
| ATAGATCC | 0.234 |
| GCTCCCCA | -0.331 |
| CTTGGGCA | -0.00168 |
| ACCCTGCA | -0.132 |
| CAACATGG | -0.234 |
| ATGGCACG | -0.00105 |
| ATCGGCGA | 0.357 |
| AACGATTA | -0.108 |
| ATACGTAT | 0.00473 |
| ATAGATTC | -0.118 |
| GGGACGTA | -0.0496 |
| AAAAGTGT | -0.183 |
| AATTACCA | 0.0497 |

| Sequence | PBM E-score |
| --- | --- |
| CGCTTACA | -0.0766 |
| GCCCATAA | 0.0134 |
| GAGACTGA | -0.114 |
| CTAACCTA | 0.0363 |
| GAATCGAC | 0.212 |
| CTGTAGCC | -0.136 |
| AAGCTTCC | -0.137 |
| GGGCAGGA | 0.00446 |
| ATTATGTC | -0.176 |
| GCTCACCA | -0.211 |
| TGTAGCAA | 0.0192 |
| TAGTTTAA | -0.0984 |
| CATGCATG | -0.254 |
| AGTGGCCA | -0.187 |
| AACTCATT | 0.123 |
| CTAAGTAG | -0.172 |
| AGTACCGG | 0.297 |
| AGAATACC | 0.0161 |
| GACCGGGC | 0.331 |
| CGAGACTC | 0.00816 |
| GAGGTCGC | 0.0338 |
| GCGTAGCA | 0.0628 |
| TAACCCTA | -0.263 |
| ACCGCCGT | 0.207 |

| Sequence | PBM E-score |
| --- | --- |
| GATCTGCC | 0.03 |
| AAAGAATC | -0.143 |
| CCGTTCCC | 0.0948 |
| ACAGCAAT | -0.0448 |
| GAGCAGCA | -0.156 |
| ATACGATC | -0.0273 |
| AGAGCTAG | -0.299 |
| GTAGTCAC | -0.113 |
| CTAGAGGA | -0.241 |
| ACTTCGAT | -0.0126 |
| CGCTACTC | 0.0937 |
| AAGGGGTG | -0.244 |
| GCCTGCAA | -0.181 |
| AGTGTAGC | -0.11 |
| AATGTGCA | -0.183 |
| TTGCGAAA | 0.19 |
| AAGTTTCC | 0.0886 |
| AAGCAAGC | -0.171 |
| AGTGAGCG | -0.133 |
| GTAAATAC | 0.0889 |
| GGAGTGCA | 0.0897 |
| GAAAAGTA | -0.0758 |
| AGCATGGG | -0.172 |
| GAATGAGA | 0.0628 |

| Sequence | PBM E-score |
| --- | --- |
| CGATGTAG | -0.0466 |
| CTTTCTTC | -0.0103 |
| AACAAATT | -0.133 |
| CTAACGGA | 0.38 |
| GGAACATA | 0.0267 |
| AGAAATAC | 0.0591 |
| AGGATACG | -0.196 |
| CTTCAAAC | -0.0498 |
| AGCTAGTA | -0.0487 |
| GCGATGAA | 0.0119 |
| AGTATTTA | -0.0413 |
| AGCTAGCT | -0.336 |
| AACACGGT | -0.00323 |
| GAGGAGGC | -0.162 |
| ATGGTAGA | -0.241 |
| CTGAAACA | -0.131 |
| CTTAAACC | 2e-05 |
| GACAATCA | -0.0325 |
| CGAGTAAG | 0.201 |
| CACGTGGC | -0.28 |
| CCTGTTTA | -0.111 |
| GGACCACC | 0.0244 |
